Assay results taken from publication PMC11833358 (Food Chemistry: X, 2025).

Test system: Caco-2 cell monolayer
Conditions: for Differential metabolite TSA vs. DS: significantly accumulated in TSA; for ER (efflux ratio, Papp(BL→AP)/Papp(AP→BL)) / Papp (AP→BL) / Papp (BL→AP): constituent of DS 100 μg/mL, 180 min; for Papp (AP→BL) / Papp (BL→AP): from UPLC-ESI-MS/MS peak areas
[1] = VIP ≥ 1, p < 0.05, fold change >2.0 or < 0.5

| Compound | Differential metabolite TSA vs. DS [1] | ER (efflux ratio, Papp(BL→AP)/Papp(AP→BL)) | Papp (AP→BL) | Papp (BL→AP) | Differential metabolite TSA vs. TSB [1] |
| --- | --- | --- | --- | --- | --- |
| O=C(O)CCc1ccc(O)cc1 | upregulated | – | – | – | – |
| COc1c(O)cc(C2CC(=O)c3c(O)cc(O)cc3O2)cc1O[C@@H]1O[C@H](CO)[C@@H](O)[C@H](O)[C@H]1O (stereo partly drawn) [3′,5′,5,7-Tetrahydroxy-4′-methoxyflavanone-3′-O-glucoside] | – | 2.54 | 5.84 10^−6 cm/s | 14.85 10^−6 cm/s | – |
| COc1cc(-c2cc(=O)c3c(O[C@@H]4O[C@H](CO)[C@@H](O)[C@H](O)[C@H]4O)cc(O)cc3o2)cc(O)c1O [3′-O-Methyltricetin-5-O-glucoside] | – | 2.31 | 6.18 10^−6 cm/s | 14.27 10^−6 cm/s | – |
| O=C(O)C(O)Cc1ccc(O)cc1 (stereo not drawn) [4-Hydroxyphenyllactic acid] | – | 0.32 | 62.54 10^−6 cm/s | 19.92 10^−6 cm/s | – |
| COc1c(O)cc2oc(-c3ccc(O)cc3)c(O[C@@H]3O[C@H](CO)[C@@H](O)[C@H](O)[C@H]3O)c(=O)c2c1O [6-Methoxykaempferol-3-O-glucoside] | – | 2.40 | 5.96 10^−6 cm/s | 14.28 10^−6 cm/s | – |
| COc1cc(O)cc([C@H]2OC[C@H](Cc3ccc(O)c(OC)c3)[C@@H]2CO)c1 [(7′S,8R,8′R)-3,5′-Dimethoxy-3′,4,9′-trihydroxy-7′,9-epoxy-8,8′-lignan] | – | 5.36 | 2.54 10^−6 cm/s | 13.61 10^−6 cm/s | – |
| O=c1cc(-c2ccc(O)cc2)oc2c(C3OCC(O)C(O)C3O)c(O)cc(O)c12 (stereo not drawn) [Apigenin-8-C-arabinoside] | – | 6.04 | 1.85 10^−6 cm/s | 11.17 10^−6 cm/s | – |
| O=C1C[C@@H](c2ccc(O)c(O)c2)Oc2cc(O[C@@H]3O[C@H](CO)[C@@H](O)[C@H](O)[C@H]3O)ccc21 [Butin-7-O-glucoside] | – | 6.47 | 1.01 10^−6 cm/s | 6.53 10^−6 cm/s | – |
| COc1cc(C(=O)[C@H]2CO[C@H](c3cc(OC)c(O)c(OC)c3)[C@H]2CO)cc(OC)c1O [Ciwujiatone] | – | 5.34 | 2.79 10^−6 cm/s | 14.90 10^−6 cm/s | – |
| O=c1cc(-c2ccc(O)cc2)oc2cc(O[C@@H]3O[C@H](CO)[C@@H](O)[C@H](O)[C@H]3O)cc(O)c12 [Cosmosiin] | – | 4.60 | 2.15 10^−6 cm/s | 9.88 10^−6 cm/s | – |
| COc1ccc(-c2cc(=O)c3c(O)cc(O[C@@H]4O[C@H](C(=O)O)[C@@H](O)[C@H](O)[C@H]4O)cc3o2)cc1O [Diosmetin-7-O-glucuronide] | – | 0.16 | – | – | – |
| O=c1c(-c2ccc(O)cc2)coc2cc(O[C@@H]3O[C@H](CO)[C@H](O)[C@H](O)[C@H]3O)cc(O)c12 [Genistein-7-O-galactoside] | – | 4.22 | 2.87 10^−6 cm/s | 12.10 10^−6 cm/s | – |
| O=C(c1ccc(O)cc1)c1c(O)cc(O)cc1O [Iriflophenone] | – | 0.17 | 2.70 10^−6 cm/s | 0.46 10^−6 cm/s | – |
| COc1cc(-c2cc(=O)c3c(O)c(OC)c(O[C@@H]4O[C@H](CO)[C@@H](O)[C@H](O)[C@H]4O)cc3o2)ccc1O [Jaceosidin-7-O-glucoside] | – | 7.33 | 1.99 10^−6 cm/s | 14.59 10^−6 cm/s | upregulated |
| O=c1c(O)c(-c2ccc(O[C@@H]3O[C@H](CO)[C@@H](O)[C@H](O)[C@H]3O)cc2)oc2cc(O)cc(O)c12 [Kaempferol-4′-O-glucoside] | – | 0.18 | 1.81 10^−6 cm/s | 0.33 10^−6 cm/s | – |
| O=c1c(O[C@@H]2O[C@H](CO)[C@H](O)[C@H](O)[C@H]2O)c(-c2cc(O)c(O)c(O)c2)oc2cc(O)cc(O)c12 [Myricetin-3-O-galactoside] | – | 2.63 | 6.79 10^−6 cm/s | 17.86 10^−6 cm/s | – |
| COc1c(O)cc2oc(-c3ccc(O)c(O)c3)c(O[C@@H]3O[C@H](CO[C@@H]4O[C@@H](C)[C@H](O)[C@@H](O)[C@H]4O)[C@@H](O)[C@H](O)[C@H]3O)c(=O)c2c1O [Patuletin-3-O-rutinoside] | – | 6.69 | 0.67 10^−6 cm/s | 4.48 10^−6 cm/s | – |
| COc1cc2oc(-c3ccc(O)c(O)c3)cc(=O)c2c(O)c1O[C@@H]1O[C@H](CO)[C@@H](O)[C@H](O)[C@H]1O [Pedaliin] | – | 2.18 | 6.37 10^−6 cm/s | 13.90 10^−6 cm/s | – |
| COc1cc(-c2[o+]c3cc(O)cc(O)c3cc2O[C@@H]2O[C@H](CO)[C@@H](O)[C@H](O)[C@H]2O)cc(O)c1O [Petunidin-3-O-glucoside] | – | 5.79 | 0.61 10^−6 cm/s | 3.53 10^−6 cm/s | – |
| O=c1c(O)c(-c2ccc(O)c(O)c2)oc2cc(O[C@@H]3O[C@H](CO)[C@@H](O)[C@H](O)[C@H]3O)c(O)c(O)c12 [Quercetagitrin] | – | 2.28 | 7.17 10^−6 cm/s | 16.33 10^−6 cm/s | – |
| COc1cc(-c2cc(=O)c3c(O)cc(O)cc3o2)cc(OC)c1O[C@@H]1O[C@H](CO)[C@@H](O)[C@H](O)[C@H]1O [Tricin-4′-O-glucoside] | – | 6.17 | 3.11 10^−6 cm/s | 19.19 10^−6 cm/s | – |
| C[C@@H]1O[C@@H](c2c(O)c([C@@H]3O[C@H](CO)[C@@H](O)[C@H](O)[C@H]3O)c(O)c3c(=O)cc(-c4ccc(O)cc4)oc23)[C@H](O)[C@H](O)[C@H]1O [Violanthin] | – | 0.16 | 3.29 10^−6 cm/s | 0.53 10^−6 cm/s | – |
| CC(=O)OCC1=C[C@@H]2OC(=O)C3=CO[C@@H](O[C@@H]4O[C@H](CO)[C@@H](O)[C@H](O)[C@H]4O)[C@H]1[C@@H]32 [asperuloside] | upregulated | – | – | – | – |
| O=C(O)/C=C/c1ccc(O)c(O)c1 [caffeic acid] | upregulated | – | – | – | – |
| O=c1cc(-c2ccccc2)oc2cc(O)cc(O)c12 [chrysin] | upregulated | – | – | – | – |
| Nortrachelogenin-4-O-glucoside | – | 5.93 | 0.59 10^−6 cm/s | 3.50 10^−6 cm/s | – |
| Rosmarinic acid-3′-O-glucoside | – | 0.14 | 3.35 10^−6 cm/s | 0.48 10^−6 cm/s | – |

More lines, now with the values ahead:

| Differential metabolite TSA vs. DS [1] | ER (efflux ratio, Papp(BL→AP)/Papp(AP→BL)) | Papp (AP→BL) | Papp (BL→AP) | Differential metabolite TSA vs. TSB [1] | Compound |
| --- | --- | --- | --- | --- | --- |
| – | 5.26 | 5.19 10^−6 cm/s | 27.30 10^−6 cm/s | – | COc1cc(OC)c2c(=O)c(OC)c(-c3ccc(OC)c(OC)c3)oc2c1 [3,5,7,3′4′-Pentamethoxyflavone] |
| – | 5.76 | 1.45 10^−6 cm/s | 8.35 10^−6 cm/s | – | O=c1cc(-c2ccc(O[C@@H]3O[C@H](CO)[C@@H](O)[C@H](O)[C@H]3O)cc2)oc2cc(O)cc(O)c12 [Apigenin-4′-O-glucoside] |
| – | 4.87 | 2.62 10^−6 cm/s | 12.75 10^−6 cm/s | – | O=c1c(O)c(-c2ccccc2)oc2cc(O[C@@H]3O[C@H](CO)[C@@H](O)[C@H](O)[C@H]3O)cc(O)c12 [Galangin-7-O-glucoside] |
| – | 0.16 | – | – | – | COc1c(O)c([C@@H]2O[C@H](CO)[C@@H](O)[C@H](O)[C@H]2O)c2oc(-c3ccc(O)cc3)cc(=O)c2c1O [Hispidulin-8-C-glucoside] |
| – | 5.31 | 2.06 10^−6 cm/s | 10.94 10^−6 cm/s | – | COc1ccc(-c2coc3cc(O[C@@H]4O[C@H](CO)[C@@H](O)[C@H](O)[C@H]4O)c(OC)c(O)c3c2=O)cc1O [Iristectorin A] |
| – | 6.27 | 0.71 10^−6 cm/s | 4.45 10^−6 cm/s | – | O=c1cc(-c2ccc(O)c(O[C@@H]3O[C@H](CO)[C@@H](O)[C@H](O)[C@H]3O)c2)oc2cc(O)cc(O)c12 [Luteolin-3′-O-glucoside] |
| – | 2.36 | 7.02 10^−6 cm/s | 16.60 10^−6 cm/s | – | O=c1c(O[C@@H]2O[C@H](CO)[C@@H](O)[C@H](O)[C@H]2O)c(-c2cc(O)c(O)c(O)c2)oc2cc(O)cc(O)c12 [Myricetin-3-O-β-D-glucoside] |
| upregulated | 5.92 | – | – | – | COc1ccccc1C(=O)O [O-anisic acid] |
| – | 3.75 | 3.04 10^−6 cm/s | 11.41 10^−6 cm/s | – | COc1cc(O[C@@H]2O[C@H](CO)[C@@H](O)[C@H](O)[C@H]2O)c2c(c1)O[C@H](c1ccc(OC)c(O)c1)CC2=O [Persicoside] |
| – | 0.16 | 11.59 10^−6 cm/s | 1.83 10^−6 cm/s | – | O=C(/C=C/c1ccc(O)cc1)OC[C@H]1O[C@@H](Oc2ccc(O)cc2)[C@H](O)[C@@H](O)[C@@H]1O [Robustaside A] |
| – | 2.98 | 5.13 10^−6 cm/s | 15.30 10^−6 cm/s | – | COc1cc(-c2cc(=O)c3c(O)cc(O[C@@H]4O[C@H](CO)[C@@H](O)[C@H](O)[C@H]4O)cc3o2)cc(OC)c1O [Tricin-7-O-glucoside] |
| – | 0.15 | 7.70 10^−6 cm/s | 1.15 10^−6 cm/s | – | Clausenaglycoside A |
| – | 2.07 | 6.93 10^−6 cm/s | 14.32 10^−6 cm/s | – | Isotamarixin |
